# PMC4336329 (PLoS ONE, 2015)
# Hit rate of the full screen: of about 310,000 compounds, about 14,000 (4.5%) showed an effect of 50% or more. The effect is printed as a negative number. The list shows a part of the results.
# Target: human ether-à-go-go-related gene (hERG) potassium channel (human, UniProt Q12809)
# Experiment: primary screen, population patch clamp on CHO cells stably expressing hERG
# 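Also: peak tail current of the secondary pulse compared with the same well before compound.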
# Chain of human ether-à-go-go-related gene (hERG) potassium channel (Q12809 whole entry, looked up): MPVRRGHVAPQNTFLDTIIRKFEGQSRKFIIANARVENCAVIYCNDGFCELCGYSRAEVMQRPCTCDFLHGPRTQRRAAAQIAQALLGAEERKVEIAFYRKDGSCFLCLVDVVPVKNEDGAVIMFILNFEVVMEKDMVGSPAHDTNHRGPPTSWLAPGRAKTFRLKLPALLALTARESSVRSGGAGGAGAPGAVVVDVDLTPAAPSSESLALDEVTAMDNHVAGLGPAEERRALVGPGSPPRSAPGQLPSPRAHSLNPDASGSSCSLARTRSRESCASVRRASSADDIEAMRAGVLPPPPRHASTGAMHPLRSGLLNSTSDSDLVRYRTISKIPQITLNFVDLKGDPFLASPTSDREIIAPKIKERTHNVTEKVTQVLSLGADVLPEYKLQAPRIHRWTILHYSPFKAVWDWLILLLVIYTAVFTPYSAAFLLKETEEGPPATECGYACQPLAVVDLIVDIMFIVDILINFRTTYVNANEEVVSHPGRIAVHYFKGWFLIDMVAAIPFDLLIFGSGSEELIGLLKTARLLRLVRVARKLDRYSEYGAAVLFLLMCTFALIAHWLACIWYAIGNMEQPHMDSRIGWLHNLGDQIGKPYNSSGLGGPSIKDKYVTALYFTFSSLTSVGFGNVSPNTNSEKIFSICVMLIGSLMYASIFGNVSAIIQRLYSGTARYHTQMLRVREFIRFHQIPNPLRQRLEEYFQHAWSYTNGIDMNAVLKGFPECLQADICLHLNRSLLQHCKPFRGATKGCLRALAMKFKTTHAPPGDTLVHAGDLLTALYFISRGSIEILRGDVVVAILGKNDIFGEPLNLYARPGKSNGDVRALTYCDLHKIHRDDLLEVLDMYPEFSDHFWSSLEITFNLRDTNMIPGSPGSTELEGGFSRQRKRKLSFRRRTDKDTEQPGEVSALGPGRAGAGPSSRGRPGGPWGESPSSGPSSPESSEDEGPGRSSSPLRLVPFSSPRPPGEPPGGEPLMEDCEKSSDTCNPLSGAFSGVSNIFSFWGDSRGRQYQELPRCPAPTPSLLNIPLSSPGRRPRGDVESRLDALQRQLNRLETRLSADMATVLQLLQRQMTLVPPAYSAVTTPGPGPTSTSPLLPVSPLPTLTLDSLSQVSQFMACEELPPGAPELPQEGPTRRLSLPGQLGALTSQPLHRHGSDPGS
row,SMILES,"hERG current change (%, negative = inhibition) at 10uM"
1,Cc1c(C(=O)O)cccc1-c1ccc(/C=C2\SC(=O)NC2=O)o1,19.4%
2,CCCC1CCC(c2nc(-c3cccnc3)no2)CC1 (stereo not shown),2.03%
3,O=C(NC1CCN(C(=O)Nc2ccccc2)CC1)C1CCCCC1,-7.88%
4,CCN(CC)C(=O)c1cccc(-c2ccc(OC)cc2)c1,-17%
5,COc1ccc(OC)c(C(O)c2nc3ccccc3n2C)c1 (stereo not shown),-5.81%
6,COc1ccccc1N(CC(=O)N/N=C/c1ccc(OCC(=O)NCc2ccco2)cc1)S(=O)(=O)c1ccc(C)cc1,7.99%
7,CCOc1ccc(CCNC(=O)COC(=O)COc2cc(C)cc(C)c2)cc1OCC,5.31%
8,CCOP(=O)(Nc1ccc2oc(=O)c3ccccc3c2c1)OCC,-6.96%
9,COc1cc(C(C)=O)ccc1OCC(=O)Nc1ccccc1N1CCCCC1,4.27%
10,CN(CCCCCCCCC(=O)/C=N/O)Cc1ccccc1.Cl,-58.4%
11,CN(C)C(=O)CSc1nnc(-c2cnccn2)n1C,7.76%
12,CCCN(CCO)Cc1ccc(F)c(Br)c1,-5.08%
13,COc1cc(CN2CCCCC2)ccc1OCc1ccccc1.O=C(O)C(=O)O,-35.1%
14,CCc1ccccc1N(CC(=O)NCC1CCCO1)C(=O)CCC(=O)Nc1cc(C)on1 (stereo not shown),6.32%
15,COc1cccc(CNC(=O)CC2Sc3ccccc3NC2=O)c1 (stereo not shown),12.9%
16,COCCC(=O)N1CCC(Oc2ccc(C(=O)NCCc3cn[nH]c3)cc2)CC1,20.2%
17,Cn1c(CNc2ccc(Cl)cc2)nnc1SCC#N,-14.5%
18,Cc1ccc(N=C2NC(=O)/C(=C/c3cccn3C)S2)cc1C,6.08%
19,O=C(CN1CCN(Cc2ccc(Cl)cc2)CC1)N/N=C/c1cccc(F)c1,-69.2%
20,O=C(CCc1nc(-c2ccccc2)no1)NCc1cccnc1,-18.8%
21,COc1cc(C)ccc1NC(=O)Cc1csc(NC(=O)Nc2ccccc2OC)n1,-1%
22,CCOC(=O)C[n+]1ccc2c([nH]c3ccccc32)c1C.[Br-],0.495%
23,O=C(Nc1ccc(Cl)cc1)Nc1ccc(Cl)c(Cl)c1,10.9%
24,COc1cccc(CNC(=O)COC(=O)CCCNC(=O)c2ccc(Cl)cc2)c1,-9.21%
25,O=c1[nH]c(COc2ccc(Cl)cc2Cl)nc2ccccc12,12.4%
26,COCCN(C(=O)CNC(=O)c1ccco1)C(C(=O)NC1CCCCC1)c1cccc(OC)c1 (stereo not shown),3.05%
27,O=C(COC(=O)c1n[nH]c(=O)c2ccccc12)NCc1ccccc1,-7.72%
28,O=C(c1ccoc1)N1CCC2(CC1)Oc1ccc(F)cc1C(=O)C21CC(c2ccccc2)=NO1 (stereo not shown),-8.73%

row,SMILES,"hERG current change (%, negative = inhibition) at 10uM"
1,Cc1coc2c(C)c3oc(=O)c(CCC(=O)NCCCn4ccnc4)c(C)c3cc12,-44.4%
2,c1cncc(CNc2ccc3c(c2)OCO3)c1,-7.08%
3,CC(C)NC(=O)C1CCN(C2CCN(CC3CC=CCC3)CC2)CC1 (stereo not shown),-15%
4,O=C(c1ccc(Cl)cc1)c1c[nH]cc1-c1ccccc1,11.4%
5,CCC(Sc1nc2n[nH]c(C)c2c(=N)n1-c1cc(Cl)ccc1C)C(=O)N1CCOCC1 (stereo not shown),-0.58%
6,Cc1ncsc1CCOC(=O)c1cccc([N+](=O)[O-])c1.Cl,-21.8%
7,CCCC(=O)Nc1c2c(nn1-c1ccc(OC)cc1)CS(=O)(=O)C2,3.92%
8,CCOC(=O)N1CCN(c2cc(N3CCN(CC)CC3)c(F)cc2[N+](=O)[O-])CC1C (stereo not shown),-45.9%
9,CC(C)CC(=O)Nc1nnc(S(=O)(=O)Nc2ccccc2)s1,14.8%
10,Cc1ccc(S(=O)(=O)N2CCN=C2c2ccccc2)cc1C,-9.01%
11,CC(C)(C)N1C(=O)[C@H]2[C@@H](c3ccc(Br)cc3)N3C(=O)N(c4ccccc4)C(=O)[C@@]3(C)[C@H]2C1=O,-6.9%
12,Cc1ccc(CNc2nc(C)cs2)cc1,5.74%
13,Cc1c(Br)ccc(NC(=O)CCN2C(=O)C3C4CCC(C4)C3C2=O)c1C (stereo not shown),-15.6%
14,Cc1ccccc1NC(=O)c1ccc(Cn2cc([N+](=O)[O-])cn2)o1,-21%
15,CC[n+]1c(/C=C/N(C)c2ccccc2)n(-c2ccccc2)c2ccc(-c3nc4ccccc4s3)cc21.[I-],-81.1%
16,COc1ccc(N2CCN(CCN3C(=O)c4ccccc4C3=O)CC2)cc1,17.6%
17,Br.CCOC(=O)CN=C1CC(C)(C)CC2=C1Sc1ncnc(N(C)C)c1N2,-42.5%
18,CC(C)N(C)CCOC(=O)c1ccc2c(c1)OCCO2.Cl,-8.98%
19,CC(Oc1ccccc1)C(=O)N1CCN=C1SCc1ccccc1F (stereo not shown),-22.4%
20,COc1ccc(C(C(=O)NC(C)(C)C)N(Cc2ccc(C)cc2)C(=O)CCC(=O)Nc2cc(C)on2)cc1 (stereo not shown),-3.86%
21,CCN(CC)CCN1C2=C(C(=O)CC(C)(C)C2)C(c2cccc(F)c2)C2=C1CC(C)(C)CC2=O,10.7%
22,CCOc1ccccc1NC(=O)C(CC(C)C)NC(=O)C1CCCCC1 (stereo not shown),-10.2%
23,Cc1cc(C)cc(OCC(=O)N/N=C\c2cn(C)nc2C)c1,-11.7%
24,COc1ccccc1CNC(=O)c1ccccc1OCc1ccc(F)cc1,-10%
25,Cc1ccc(S(=O)(=O)N2CCCCC2)cc1NC(=O)CCN1C(=O)C2CC=CCC2C1=O (stereo not shown),-18.2%
26,COc1ccc(NS(=O)(=O)c2cc(NC(=O)C3CC3)ccc2N2CCOCC2)cc1,-40.8%
27,COc1ccc(-n2ncc3c2CC(C)(C)CC3NC(=O)c2ccc(OC)o2)cc1 (stereo not shown),-50.2%
